The source gives no read counts; variants with many changes may rest on few reads.
B1: LINE1-mini (parent)
chain: GGCAGAGCUCAACACAGCGUGGCAAAGUGGCUGUGGCUAGACUGCC

Variants of: B1
Assay: self-cleavage, relative activity (ratio to wild type); higher = more cleavage; in vitro, sequencing; the parent is a self-cleaving ribozyme

| Variant | self-cleavage |
| --- | --- |
| GGUAGAGCUCACCACAGCGUGGCAAAGUGGCUGUGACUAGACUGGC [C3U A12C G36A C45G] | 2.39 |
| GGCAGAACUAAACACAGCGUGACAAAGUGGCUGUGGCUAGACUGCC [G7A C10A G22A] | 0.03 |
| GGCAGAGCUCAACACAGUGUGACAAAGCGGCUGUGGCUAGACAGCC [C18U G22A U28C U43A] | 0.06 |
| GGCAGAGCUCAAGACAACGUGGCAAAGUGGCUGUGGCUAGACUGUC [C13G G17A C45U] | 0.09 |
| GGGAGAUCUCAACACAGGGUGGCAAAGUGGCUGUGGCUAGACUGCC [C3G G7U C18G] | 0.29 |
| GGCAGUGCUCAACAAAGCGUGGCAAAGUGGCUGUGGCUAGAUUGCC [A6U C15A C42U] | 0.08 |
| GGCAGAGCUCAACACAGCGUAGCAAAGUGGCUGUGGCAAGACUGCA [G21A U38A C46A] | 0.39 |
| GGCGGAGCUCGACACAGCGUGGCAAAGUUACUGUGGUUAGACUGCC [A4G A11G G29U G30A C37U] | 0.03 |
| GGAAGAGCUCAUCCCAGCGUGGCUAAGUGGCUGUGGCUAGACUCCC [C3A A12U A14C A24U G44C] | 0.06 |
| GGCAGAGCAGAACAUAGCGUGGUAAAGUGGCUGUGGCUAGACUGCC [U9A C10G C15U C23U] | 0.01 |
| GGCAGAGGUCAACACACCGUGGCAAAGUGGCUGUGGCUCGAUUGCC [C8G G17C A39C C42U] | 0.01 |
| GGCAGAGCUCAACACAGGGUCGGAAAGUGGCUUUGGCUAGACUGCC [C18G G21C C23G G33U] | 0.07 |
| GGCAGAGCUCAACACAGCGUGCCAUAGUGGCUACGGCUAGACUUCC [G22C A25U G33A U34C G44U] | 0.03 |
| GGCAGAGCUCAACACAGCGUGGAAAAGUGGCUAUGGCUGGGCUGCC [C23A G33A A39G A41G] | 0.1 |
| GGCAAAGCUCAACACAGCGUGGCAAAGUGGCAGUGGCUAGACCGCC [G5A U32A U43C] | 0.01 |
| GGCAGAGCUCAACACAGGGUGGCAAAGUGGCUGUGGCUAAUCUGCC [C18G G40A A41U] | 0.16 |
| GGCAUAGCUAAACACAGCGUGGCUAAGUGGCUGUGGCUAGACUGCC [G5U C10A A24U] | 0.02 |
| GGCAGAGCUAAACACGGCGUGGCAAAGUGGCCGUGGCUAGACUGCC [C10A A16G U32C] | 0.05 |
| GGCAGAGCUGAACACAUCAUGGCUAAGUGGCUGCGGCUAGACUGCC [C10G G17U G19A A24U U34C] | 0.02 |

| Variant | self-cleavage |
| --- | --- |
| GGCACGGCUCAACACAGCGUGGCAAAAUGGCUGAGGCCAUACUUCC [G5C A6G G27A U34A U38C G40U G44U] | 0.02 |
| GGCAGAGCUCAACCCGGCGUAGCAAAGUGGCUGUAGCUAGACUGCC [A14C A16G G21A G35A] | 0.02 |
| GACAGAGCUCAACACAGCCUGGCAAAGUGGCUGUGGCUUGACUGCC [G2A G19C A39U] | 0.32 |
| GGAAGAGCUCAAUACAGCGGGGCAAAGUGGCUGUGGCUAGACGGCC [C3A C13U U20G U43G] | 1.53 |
| GGCAGAGCACGACACAGGGUGGCAAAGUGGCUGUGGGUAGACUGCC [U9A A11G C18G C37G] | 0 |
| GGCAGAGCUCAACACAGCGUGUCAAAGUGGCUGUGAAUAGACUGCA [G22U G36A C37A C46A] | 0.05 |
| GGCAGAUCUCAACACAGCGUGGCAAAGUGGGUGUGGCUUCACUGCC [G7U C31G A39U G40C] | 0.01 |
| GGCAGAGAUCAAGACAGCGUGGCAAAGUGGGUGUGUUUAGACUGCC [C8A C13G C31G G36U C37U] | 0.22 |
| GGCAGAGCUUGACACAGCGUUUCAAAGUGGCUGUGGCUAGACUGCC [C10U A11G G21U G22U] | 0.05 |
| GGCAGAUCUCAACACAGCGUGGCAAAGUGGCUGUGGCUAACCUGUC [G7U G40A A41C C45U] | 0.04 |
| GGCAGAGAUCAACUCAGCGUGGCAAAGUGGCUGGGGCUAGACUGCC [C8A A14U U34G] | 0.08 |
| GGCACAGCUAAACACAGCGUGGCACAGUGGCUGUGGCUAGACCGCC [G5C C10A A25C U43C] | 0.03 |
| GGCAGAGCUCAGCACAGCGUGGCAAAUUGGCUUUAGCUAGGCUGCC [A12G G27U G33U G35A A41G] | 0.01 |
| GGCAGAGCUCAGCACAGCGUGACAAAGUGGCAGUGGCAAGACUGCC [A12G G22A U32A U38A] | 0.01 |
| GGCGGAGCUAACCAUAGCGUGGCAAAGUGACUGUGGCUAGACUGCC [A4G C10A A12C C15U G30A] | 0 |
| GGCACAGCUCAACACAGCGUGGCAAAGUGGCUGUGGCUAGCCCGCC [G5C A41C U43C] | 0.02 |
| UGAAGAGCUCAACACAACGUGGCAAAGUGGCUGUCGCUAGACUGCC [G1U C3A G17A G35C] | 0.27 |
| GGCAGAGCUCAACACAGCGUGGCAAAGUGGCUUCGGCUAGAUUGCC [G33U U34C C42U] | 0.07 |
| GGCAGAGUUCACCACAGCGUGCUAAAGUGGCUGUGGCUAGACUGCC [C8U A12C G22C C23U] | 0.03 |

| Variant | self-cleavage |
| --- | --- |
| GGCAGGGCUCAACACAGCGUGGCAAAGUGGCUGUGGCUAGUCUAGC [A6G A41U G44A C45G] | 0.03 |
| GGCAGCGCUCAACACAGCGUGGCAAUGUGGCUGUGGCUUGAGUGCC [A6C A26U A39U C42G] | 0.09 |
| UGCACAGCUCCGCACAGCGUGGCAUAGUGGGUGUGGCUAGACUGCU [G1U G5C A11C A12G A25U C31G C46U] | 0.02 |
| GGCAGAGCUCAACACCUCGUGGCAAAGUCGCUGUGGCUAGACUGGC [A16C G17U G29C C45G] | 0.02 |
| GGAAGAGCUCAACACAGCGUGGCAAAGUGGCUGUGGCUAAACUUCC [C3A G40A G44U] | 0.22 |
| GGCAGAGCUCACCACAGCGUUGCAAAAUGGCUGUGGUUAGACUGCC [A12C G21U G27A C37U] | 0 |
| GGCAGAGCUCAACACAGCGUGGCACAUUGGCUGUGGAUAGUCUGCC [A25C G27U C37A A41U] | 0.06 |
| GGCAGGGCUCAACACAGCGUGGCACAGUGGCUGUGGCUAUACUGCC [A6G A25C G40U] | 0.08 |
| GGCAGCGCUCAACACAGCGUGGGAAAGUGGCUGUCGCUAGACUGCC [A6C C23G G35C] | 0.01 |
| GGCAGAGCUCAACACAGCGGCGCAAAGUGGCUGUGCCUAGACUCCC [U20G G21C G36C G44C] | 0.03 |
| GGUAUAGCUCAACACAGCGUGGCAAAGUGGCUGUGGCUAGCCUGCC [C3U G5U A41C] | 0.04 |
| GGCAGAGCUCAACCCAUCGUGGCUAAGUGGCUAUGGCUAGAUUGCC [A14C G17U A24U G33A C42U] | 0.15 |
| GGCAUAGCACAAGACAGCGUGGCAAAGUGGCUGUGGCUAGACUGCC [G5U U9A C13G] | 0.11 |
| GGAAGAACUCAACACAGCGCGGCAAAGUCGCAGUGGCUAGACUGCC [C3A G7A U20C G29C U32A] | 0.63 |
| AGCAGAGGUCAACACAACGUGGCAAAGUGGCUGCGGCAAGACUGCC [G1A C8G G17A U34C U38A] | 0.09 |
| CGCAGAGCUCAACACAGCGUGCCAGUGUGGCUGUGGCUAGACUGCC [G1C G22C A25G A26U] | 0.06 |
| GGCAGUGUUAAACACAGCGUUGCAAAGUGGCUGUGGCUAGACUGCC [A6U C8U C10A G21U] | 0.09 |
| GCCAGAGCUCAACACACCGUGGCAAAAUGGCUAUGGCUAGACCGCC [G2C G17C G27A G33A U43C] | 0.02 |

From the RNAGym collection of RNA variant scans (doi:10.7554/elife.90254)
